# Measurements from the supplement of paper PMC8728848.
# Some of the results follow.
# Key:
# Assay in all cases: glycan array binding signal (z-score within array); higher = stronger binding
# Conditions in all cases: glycan notation: IUPAC condensed, linker removed
# [1] = target: Neu5Ac(a2-3)[GalNAc(b1-4)]Gal(b1-4)GlcNAc(b1-3)GalNAc
# Method in brief: (§1)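 The binding signal is a Z-score computed within each array and averaged over linkers. Arrays of the same protein sequence at different concentrations or buffers were also averaged together. Data originate from 3228 arrays in the Consortium for Functional Glycomics database, kept only where the protein sequence was available.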
# [2] = target: Neu5Ac(a2-3)[Neu5Ac(a2-6)]GalNAc
# Method in brief: as §1
# Neu5Ac(a2-6)Gal = target: Neu5Ac(a2-6)Gal
# Method in brief: as §1
# [3] = target: Neu5Ac(a2-6)Gal(b1-3)GlcNAc(b1-3)[Gal(b1-4)GlcNAc(b1-6)]Gal(b1-4)Glc
# Method in brief: as §1
# Neu5Ac(a2-6)Gal(b1-4)Glc = target: Neu5Ac(a2-6)Gal(b1-4)Glc
# Method in brief: as §1
# [4] = target: Neu5Ac(a2-6)Gal(b1-4)GlcNAc
# Method in brief: as §1
# [5] = target: Neu5Ac(a2-6)Gal(b1-4)GlcNAc(b1-2)Man(a1-3)Man(b1-4)GlcNAc(b1-4)GlcNAc
# Method in brief: as §1
# [6] = target: Neu5Ac(a2-6)Gal(b1-4)GlcNAc(b1-2)Man(a1-3)[Gal(b1-4)GlcNAc(b1-2)Man(a1-6)]Man(b1-4)GlcNAc(b1-4)GlcNAc
# Method in brief: as §1
# [7] = target: Neu5Ac(a2-6)Gal(b1-4)GlcNAc(b1-2)Man(a1-3)[GlcNAc(b1-2)Man(a1-6)]Man(b1-4)GlcNAc(b1-4)GlcNAc
# Method in brief: as §1
# [8] = target: Neu5Ac(a2-6)Gal(b1-4)GlcNAc(b1-2)Man(a1-3)[GlcNAc(b1-2)Man(b1-4)GlcNAc(b1-2)Man(a1-6)]Man(b1-4)GlcNAc(b1-4)GlcNAc
# Method in brief: as §1
# [9] = target: Neu5Ac(a2-6)Gal(b1-4)GlcNAc(b1-2)Man(a1-3)[Man(a1-6)]Man(b1-4)GlcNAc(b1-4)GlcNAc
# Method in brief: as §1
# [10] = target: Neu5Ac(a2-6)Gal(b1-4)GlcNAc(b1-2)Man(a1-3)[Neu5Ac(a2-6)Gal(b1-4)GlcNAc(b1-2)Man(a1-6)]Man(b1-4)GlcNAc(b1-4)GlcNAc
# Method in brief: as §1
# [11] = target: Neu5Ac(a2-6)Gal(b1-4)GlcNAc(b1-2)Man(a1-6)Man(b1-4)GlcNAc(b1-4)GlcNAc
# Method in brief: as §1
# [12] = target: Neu5Ac(a2-6)Gal(b1-4)GlcNAc(b1-2)Man(a1-6)[Gal(b1-4)GlcNAc(b1-2)Man(a1-3)]Man(b1-4)GlcNAc(b1-4)GlcNAc
# Method in brief: as §1
# [13] = target: Neu5Ac(a2-6)Gal(b1-4)GlcNAc(b1-2)Man(a1-6)[GlcNAc(b1-2)Man(a1-3)]Man(b1-4)GlcNAc(b1-4)GlcNAc
# Method in brief: as §1
# [14] = target: Neu5Ac(a2-6)Gal(b1-4)GlcNAc(b1-2)Man(a1-6)[Man(a1-3)]Man(b1-4)GlcNAc(b1-4)GlcNAc
# Method in brief: as §1
# [15] = target: Neu5Ac(a2-6)Gal(b1-4)GlcNAc(b1-3)Gal(b1-3)GlcNAc
# Method in brief: as §1
# [16] = target: Neu5Ac(a2-6)Gal(b1-4)GlcNAc(b1-3)Gal(b1-4)GlcNAc
# Method in brief: as §1
# [17] = target: Neu5Ac(a2-6)Gal(b1-4)GlcNAc(b1-3)Gal(b1-4)GlcNAc(b1-3)Gal(b1-4)GlcNAc
# Method in brief: as §1
# [18] = target: Neu5Ac(a2-6)Gal(b1-4)GlcNAc(b1-3)Gal(b1-4)[Fuc(a1-3)]GlcNAc(b1-3)Gal(b1-4)[Fuc(a1-3)]GlcNAc
# Method in brief: as §1
# [19] = target: Neu5Ac(a2-6)Gal(b1-4)GlcNAc(b1-3)GalNAc
# Method in brief: as §1
# [20] = target: Neu5Ac(a2-6)Gal(b1-4)GlcNAc6S
# Method in brief: as §1
# Neu5Ac(a2-6)GalNAc = target: Neu5Ac(a2-6)GalNAc
# Method in brief: as §1
# [21] = target: Neu5Ac(a2-6)GalNAc(b1-4)GlcNAc
# Method in brief: as §1
# [22] = target: Neu5Ac(a2-6)GlcNAc(b1-4)GlcNAc
# Method in brief: as §1
# [23] = target: Neu5Ac(a2-6)GlcNAc(b1-4)GlcNAc(b1-4)GlcNAc
# Method in brief: as §1
# Neu5Ac(a2-8)Neu5Ac = target: Neu5Ac(a2-8)Neu5Ac
# Method in brief: as §1
# [24] = target: Neu5Ac(a2-8)Neu5Ac(a2-3)Gal(b1-3)GalNAc(b1-4)[Neu5Ac(a2-8)Neu5Ac(a2-3)]Gal(b1-4)Glc
# Method in brief: as §1
# [25] = target: Neu5Ac(a2-8)Neu5Ac(a2-3)Gal(b1-4)Glc
# Method in brief: as §1
# [26] = target: Neu5Ac(a2-8)Neu5Ac(a2-3)[Gal(b1-3)GalNAc(b1-4)]Gal(b1-4)Glc
# Method in brief: as §1
# [27] = target: Neu5Ac(a2-8)Neu5Ac(a2-3)[GalNAc(b1-4)]Gal(b1-4)Glc
# Method in brief: as §1
# [28] = target: Neu5Ac(a2-8)Neu5Ac(a2-8)Neu5Ac
# Method in brief: as §1
# [29] = target: Neu5Ac(a2-8)Neu5Ac(a2-8)Neu5Ac(a2-3)Gal(b1-4)Glc
# Method in brief: as §1
# [30] = target: Neu5Ac(a2-8)Neu5Ac(a2-8)Neu5Ac(a2-3)[GalNAc(b1-4)]Gal(b1-4)Glc
# Method in brief: as §1
# [31] = target: Neu5Ac(a2-8)Neu5Ac(a2-8)Neu5Ac(a2-8)Neu5Ac(a2-3)[GalNAc(b1-4)]Gal(b1-4)Glc
# Method in brief: as §1
# [32] = target: Neu5Ac(b2-6)Gal(b1-4)GlcNAc
# Method in brief: as §1
# Neu5Ac(b2-6)GalNAc = target: Neu5Ac(b2-6)GalNAc
# Method in brief: as §1
# [33] = target: Neu5Ac9Ac(a2-3)Gal(b1-3)GlcNAc
# Method in brief: as §1
binder,measurement,setting,value
Gal 9 (Canis lupus) (protein) MAFSSSQPPYLSPGVPFSGKIQGGLQDGLKITINGTILYCNGTRFAVNFHSGHSDSDIAFHFNPRFEEGGYVVCNTKQKGSWGSEERKMQMPFQMGNPFELCFMVNSCDFKVTVNGSHFTQYSHRVPFHYVDTLSITGAVQLSYISFQSPGVWQSSSAPITQTVIHTVQTTPGQPFPNPIIPPTAYPTPTYPMPFFTSIPGGLYPSKSIIVSGTVLPGAKRFHINLRSGNDIAFHLNPRFNENTVVRNMQINNSWGSEERSLPRKMPFVQGQSFSVWIMCEGHCFKVAVDGEHLFEYYHRLKNLLAINNMEVAGDVQLTHVQT,glycan array binding signal (z-score),[1],-0.303
same,glycan array binding signal (z-score),[2],-0.343
same,glycan array binding signal (z-score),Neu5Ac(a2-6)Gal,-0.342
same,glycan array binding signal (z-score),[3],-0.324
same,glycan array binding signal (z-score),Neu5Ac(a2-6)Gal(b1-4)Glc,-0.042
same,glycan array binding signal (z-score),[4],-0.334
same,glycan array binding signal (z-score),[5],-0.332
same,glycan array binding signal (z-score),[6],-0.085
same,glycan array binding signal (z-score),[7],-0.307
same,glycan array binding signal (z-score),[8],0.465
same,glycan array binding signal (z-score),[9],-0.321
same,glycan array binding signal (z-score),[10],-0.325
same,glycan array binding signal (z-score),[11],-0.298
same,glycan array binding signal (z-score),[12],0.135
same,glycan array binding signal (z-score),[13],-0.321
same,glycan array binding signal (z-score),[14],-0.335
same,glycan array binding signal (z-score),[15],0.406
same,glycan array binding signal (z-score),[16],0.21
same,glycan array binding signal (z-score),[17],0.074
same,glycan array binding signal (z-score),[18],-0.327
same,glycan array binding signal (z-score),[19],-0.178
same,glycan array binding signal (z-score),[20],-0.334
same,glycan array binding signal (z-score),Neu5Ac(a2-6)GalNAc,-0.329
same,glycan array binding signal (z-score),[21],-0.345
same,glycan array binding signal (z-score),[22],-0.346
same,glycan array binding signal (z-score),[23],-0.335
same,glycan array binding signal (z-score),Neu5Ac(a2-8)Neu5Ac,-0.316
same,glycan array binding signal (z-score),[24],-0.045
same,glycan array binding signal (z-score),[25],0.37
same,glycan array binding signal (z-score),[26],-0.302
same,glycan array binding signal (z-score),[27],-0.355
same,glycan array binding signal (z-score),[28],-0.327
same,glycan array binding signal (z-score),[29],0.318
same,glycan array binding signal (z-score),[30],-0.334
same,glycan array binding signal (z-score),[31],-0.331
same,glycan array binding signal (z-score),[32],-0.331
same,glycan array binding signal (z-score),Neu5Ac(b2-6)GalNAc,-0.34
same,glycan array binding signal (z-score),[33],0.256
